Our source for the AlphaScreen luminescence signal values is the supplement of paper PMC12423691.

Some of the results follow. Binding of human transcription factors and regulators to the viral nucleoprotein by AlphaScreen, crude cell-free proteins, amounts not normalised, one pass. Fold of the Venus control; higher = more signal. No active / inactive call. Single-pass screen; sequences are the whole Swiss-Prot entries looked up by name.

The labels stand for the following.
B1: ZXDA, P98168 (protein)
chain: MEIPKLLPARGTLQGGGGGGIPAGGGRVHRGPDSPAGQVPTRRLLLPRGPQDGGPGRRREEASTASRGPGPSLFAPRPHQPSGGGDDFFLVLLDPVGGDVETAGSGQAAGPVLREEAKAGPGLQGDESGANPAGCSAQGPHCLSAVPTPAPISAPGPAAAFAGTVTIHNQDLLLRFENGVLTLATPPPHAWEPGAAPAQQPRCLIAPQAGFPQAAHPGDCPELRSDLLLAEPAEPAPAPAPQEEAEGLAAALGPRGLLGSGPGVVLYLCPEALCGQTFAKKHQLKMHLLTHSSSQGQRPFKCPLGGCGWTFTTSYKLKRHLQSHDKLRPFGCPAEGCGKSFTTVYNLKAHMKGHEQENSFKCEVCEESFPTQAKLGAHQRSHFEPERPYQCAFSGCKKTFITVSALFSHNRAHFREQELFSCSFPGCSKQYDKACRLKIHLRSHTGERPFLCDFDGCGWNFTSMSKLLRHKRKHDDDRRFMCPVEGCGKSFTRAEHLKGHSITHLGTKPFVCPVAGCCARFSARSSLYIHSKKHLQDVDTWKSRCPISSCNKLFTSKHSMKTHMVKRHKVGQDLLAQLEAANSLTPSSELTSQRQNDLSDAEIVSLFSDVPDSTSAALLDTALVNSGILTIDVASVSSTLAGHLPANNNNSVGQAVDPPSLMATSDPPQSLDTSLFFGTAATGFQQSSLNMDEVSSVSVGPLGSLDSLAMKNSSPEPQALTPSSKLTVDTDTLTPSSTLCENSVSELLTPAKAEWSVHPNSDFFGQEGETQFGFPNAAGNHGSQKERNLITVTGSSFLV
B2: HMGB2, P26583 (protein)
chain: MGKGDPNKPRGKMSSYAFFVQTCREEHKKKHPDSSVNFAEFSKKCSERWKTMSAKEKSKFEDMAKSDKARYDREMKNYVPPKGDKKGKKKDPNAPKRPPSAFFLFCSEHRPKIKSEHPGLSIGDTAKKLGEMWSEQSAKDKQPYEQKAAKLKEKYEKDIAAYRAKGKSEAGKKGPGRPTGSKKKNEPEDEEEEEEEEDEDEEEEDEDEE
B3: CYP1B1, Q16678 (protein)
chain: MGTSLSPNDPWPLNPLSIQQTTLLLLLSVLATVHVGQRLLRQRRRQLRSAPPGPFAWPLIGNAAAVGQAAHLSFARLARRYGDVFQIRLGSCPIVVLNGERAIHQALVQQGSAFADRPAFASFRVVSGGRSMAFGHYSEHWKVQRRAAHSMMRNFFTRQPRSRQVLEGHVLSEARELVALLVRGSADGAFLDPRPLTVVAVANVMSAVCFGCRYSHDDPEFRELLSHNEEFGRTVGAGSLVDVMPWLQYFPNPVRTVFREFEQLNRNFSNFILDKFLRHCESLRPGAAPRDMMDAFILSAEKKAAGDSHGGGARLDLENVPATITDIFGASQDTLSTALQWLLLLFTRYPDVQTRVQAELDQVVGRDRLPCMGDQPNLPYVLAFLYEAMRFSSFVPVTIPHATTANTSVLGYHIPKDTVVFVNQWSVNHDPLKWPNPENFDPARFLDKDGLINKDLTSRVMIFSVGKRRCIGEELSKMQLFLFISILAHQCDFRANPNEPAKMNFSYGLTIKPKSFKVNVTLRESMELLDSAVQNLQAKETCQ
B4: TRIM14, Q14142 (protein)
chain: MAGAATGSRTPGRSELVEGCGWRCPEHGDRVAELFCRRCRRCVCALCPVLGAHRGHPVGLALEAAVHVQKLSQECLKQLAIKKQQHIDNITQIEDATEKLKANAESSKTWLKGKFTELRLLLDEEEALAKKFIDKNTQLTLQVYREQADSCREQLDIMNDLSNRVWSISQEPDPVQRLQAYTATEQEMQQQMSLGELCHPVPLSFEPVKSFFKGLVEAVESTLQTPLDIRLKESINCQLSDPSSTKPGTLLKTSPSPERSLLLKYARTPTLDPDTMHARLRLSADRLTVRCGLLGSLGPVPVLRFDALWQVLARDCFATGRHYWEVDVQEAGAGWWVGAAYASLRRRGASAAARLGCNRQSWCLKRYDLEYWAFHDGQRSRLRPRDDLDRLGVFLDYEAGVLAFYDVTGGMSHLHTFRATFQEPLYPALRLWEGAISIPRLP
B5: ZFAT, Q9P243 (protein)
chain: METRAAENTAIFMCKCCNLFSPNQSELLSHVSEKHMEEGVNVDEIIIPLRPLSTPEPPNSSKTGDEFLVMKRKRGRPKGSTKKSSTEEELAENIVSPTEDSPLAPEEGNSLPPSSLECSKCCRKFSNTRQLRKHICIIVLNLGEEEGEAGNESDLELEKKCKEDDREKASKRPRSQKTEKVQKISGKEARQLSGAKKPIISVVLTAHEAIPGATKIVPVEAGPPETGATNSETTSADLVPRRGYQEYAIQQTPYEQPMKSSRLGPTQLKIFTCEYCNKVFKFKHSLQAHLRIHTNEKPYKCPQCSYASAIKANLNVHLRKHTGEKFACDYCSFTCLSKGHLKVHIERVHKKIKQHCRFCKKKYSDVKNLIKHIRDAHDPQDKKVKEALDELCLMTREGKRQLLYDCHICERKFKNELDRDRHMLVHGDKWPFACELCGHGATKYQALELHVRKHPFVYVCAVCRKKFVSSIRLRTHIKEVHGAAQEALVFTSSINQSFCLLEPGGDIQQEALGDQLQLVEEEFALQGVNALKEEACPGDTQLEEGRKEPEAPGEMPAPAVHLASPQAESTALPPCELETTVVSSSDLHSQEVVSDDFLLKNDTSSAEAHAAPEKPPDMQHRSSVQTQGEVITLLLSKAQSAGSDQESHGAQSPLGEGQNMAVLSAGDPDPSRCLRSNPAEASDLLPPVAGGGDTITHQPDSCKAAPEHRSGITAFMKVLNSLQKKQMNTSLCERIRKVYGDLECEYCGKLFWYQVHFDMHVRTHTREHLYYCSQCHYSSITKNCLKRHVIQKHSNILLKCPTDGCDYSTPDKYKLQAHLKVHTALDKRSYSCPVCEKSFSEDRLIKSHIKTNHPEVSMSTISEVLGRRVQLKGLIGKRAMKCPYCDFYFMKNGSDLQRHIWAHEGVKPFKCSLCEYATRSKSNLKAHMNRHSTEKTHLCDMCGKKFKSKGTLKSHKLLHTADGKQFKCTVCDYTAAQKPQLLRHMEQHVSFKPFRCAHCHYSCNISGSLKRHYNRKHPNEEYANVGTGELAAEVLIQQGGLKCPVCSFVYGTKWEFNRHLKNKHGLKVVEIDGDPKWETATEAPEEPSTQYLHITEAEEDVQGTQAAVAALQDLRYTSESGDRLDPTAVNILQQIIELGAETHDATALASVVAMAPGTVTVVKQVTEEEPSSNHTVMIQETVQQASVELAEQHHLVVSSDDVEGIETVTVYTQGGEASEFIVYVQEAMQPVEEQAVEQPAQEL

The assay has as its target nucleoprotein N of Crimean-Congo hemorrhagic fever virus. The experiment in a line: AlphaScreen luminescence signal relative to Venus negative control (fold); higher = stronger binding to CCHFV N. The protocol:
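AlphaScreen binding of cell-free made, FLAG-GST-tagged human transcription factors and regulators (crude translation products) to biotinylated N protein; signal as fold of the FLAG-GST-Venus control. One pass.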
Regarding B1, the AlphaScreen luminescence signal was found to be 1.95. Then B2, with 4.09; and B3, with 2.65. For B4, the AlphaScreen luminescence signal turned out to be 2.84.

Consider B5, for which the AlphaScreen luminescence signal was 3.4.
